Measured values reported in PubChem BioAssay AID651820 (National Center for Advancing Translational Sciences (NCATS), 2012).
The whole screen tested about 340,000 compounds, of which about 12,000 (3.5%) were called active. This list was built around the results that the source calls inconclusive (neither active nor inactive); the mix of calls is not that of the screen. The call rests on the fitted dose curve; in most records, active means well fitted inhibition curve with a large enough effect; inconclusive means small, poorly fitted or top-dose-only effect, or another doubt; inactive means no such curve, though single readings can be large or run the other way. Potencies of inconclusive entries are left out as doubtful fits.

Test: qHTS Assay for Inhibitors of Hepatitis C Virus (HCV)
Conditions: Huh7.5.1 HCVcc-Cre (HCVcc is cell-culture hepatitis C virus) infection, luciferase reporter, 44 h; series mostly up to 41.8 µM
Outline: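 Cells seeded at 1,000/well and cultured 4 h, then compounds added followed by HCVcc-Cre virus (~0.5 moi). After 44 h further culture, luciferase substrate was added, plates held 15 min at room temperature, and luminescence read for 15 sec.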
Potency means the concentration at half of the fitted maximal effect; tags describe the fitted curve by direction and shape.

Row | Structure (SMILES) | Potency
1 | Cc1ccc(NC(=O)CCOc2ccccc2C)cc1C | inactive
2 | Cc1ccc(-c2nnc3ccc(SCC(=O)NCc4ccco4)nn23)cc1 | inconclusive [inhibitor, single point]
3 | Cc1cccc(Nc2ccccc2C(=O)NCc2ccco2)c1C | inconclusive [inhibitor, partial curve]
4 | O=C(NC(=S)Nc1nc(-c2cccc([N+](=O)[O-])c2)cs1)c1cc(Cl)ccc1Cl | inconclusive [inhibitor, single point]
5 | Cc1cc(NC(=O)COc2ccccc2C)no1 | inactive
6 | O=S(=O)(Nc1ccc2cn[nH]c2c1)c1ccc(Cl)cc1 | inactive
7 | Cn1c(=O)n(CC(=O)N2CCN(c3nnc(-c4ccccc4)c4ccccc34)CC2)c2ccccc21 | inconclusive [inhibitor, partial curve]
8 | COc1cc(-n2c(C)nc3cc(C(=O)NCC4CCCO4)ccc32)cc(OC)c1OC (centres undefined) | inactive
9 | Cc1ccc(O)c(C(=O)c2cc(C#N)c(=O)n(Cc3ccccc3)c2)c1 | inconclusive [inhibitor, partial curve]
10 | Cc1cc(C)cc(OCC(=O)OCC(=O)N2CCc3ccccc32)c1 | inactive
11 | O=C(NCc1ccccc1)c1c(Cl)nc(Cl)c(Cl)c1Cl | active: 12.6 µM
12 | CCOC(=O)N1CCN(CC(=O)N2c3ccccc3CCc3ccccc32)CC1 | inactive
13 | CCOc1ccccc1C(=O)Nc1ccsc1C(=O)OC | inconclusive [inhibitor, partial curve]
14 | COc1ccc(/C=C/C(=O)c2cccc(-n3cnnn3)c2)cc1O | inconclusive [inhibitor, partial curve, poor fit]
15 | CC(C)CN(C(=O)CSc1nn(-c2ccc(Cl)cc2)c(=S)s1)C1CCS(=O)(=O)C1 (centres undefined) | inactive
16 | CCCCCCCC(=O)N/N=C(/C)c1c(O)cc(C)oc1=O | inactive
17 | COc1ccccc1CNC(=O)COC(=O)CCN=C1NS(=O)(=O)c2ccccc21 | inactive
18 | O=C(NN=C1CCCCCCCCCCC1)c1cccc(S(=O)(=O)N2CCOCC2)c1 | inactive
19 | O=S1(=O)N[C@@H](CC2=CCCCC2)C2CCCCC2O1 (some centres undefined) | inactive
20 | COc1ccccc1CNC(=O)C1CCCN(S(=O)(=O)c2ccc3c(c2)CC(C)N3C(C)=O)C1 (centres undefined) | inconclusive [inhibitor, single point]
21 | O=C(C1CC1)N1CCc2cc(Br)cc(S(=O)(=O)NCC3COc4ccccc4O3)c21 (centres undefined) | inconclusive [inhibitor, partial curve]
22 | Cc1cccc(OCCNC(=O)CCNS(=O)(=O)c2ccc3ccccc3c2)c1 | inactive
23 | CCOC(=O)c1sc(NC(=O)c2ccc(S(=O)(=O)N3CCOCC3)cc2)cc1C | inconclusive [inhibitor, single point]
24 | CCOC(=O)c1cccc(NC(=O)CCCn2c(=O)c3cccn3c3cccnc32)c1 | inconclusive [inhibitor, single point]
25 | CCCN1Cc2cccc(C(=O)Nc3ccc(-c4nc5ccccc5[nH]4)cc3)c2C1=O | inconclusive [inhibitor, partial curve]

Row | Structure (SMILES) | Potency
26 | CN(C)S(=O)(=O)n1cc(/C=C(\NC(=O)c2ccccc2)C(=O)NCCCn2ccnc2)c2ccccc21 | inactive
27 | Cc1ccc(S(=O)(=O)N2CCOCC2)cc1NC(=O)COC(=O)COc1ccccc1[N+](=O)[O-] | inactive
28 | CC12CCC(=O)C=C1CCC1C2CCC2(C)C(O)(C(=O)CO)CCC12O (centres undefined) | inactive
29 | O=C(O)CNC(=O)CC1S/C(=N/N=C2/NC(=O)CS2)NC1=O (centres undefined) | inactive
30 | O=[N+]([O-])c1cc(-n2cnnn2)ccc1N1CCC(Cc2ccccc2)CC1 | inconclusive [inhibitor, single point]
31 | COc1ccc(Cl)c(Cn2c(NCc3ccco3)nc3c2c(=O)n(C)c(=O)n3C)c1 | inconclusive [inhibitor, single point]
32 | COc1ccc(C)cc1NC(=S)NNC(=O)c1c(Br)cnn1C | inactive
33 | COc1ccc(-c2csc(Nc3cccc(C)n3)n2)cc1C | inconclusive [inhibitor, partial curve]
34 | Cc1oc2ccc(O)c(CN(C)C)c2c1C(=O)c1ccccc1 | inactive
35 | CCOc1cc(C)c(S(=O)(=O)Nc2ccc3cn[nH]c3c2)cc1C | active: 10 µM
36 | C[C@@H](C(=O)NCCc1ccccc1F)N1C(=O)N2CCc3c([nH]c4ccccc34)[C@@]2(C)C1=O | active: 6.31 µM
37 | Cc1cc(C)nc(Sc2ccc3nnnn3n2)n1 | inactive
38 | Cc1csc(NC(=O)c2ccc(OCC3CCCO3)cc2)n1 (centres undefined) | active: 11.2 µM
39 | CC(=O)N1SC(N)=NC1c1ccccc1 (centres undefined) | inactive
40 | Cc1ccc(N)cc1O | inactive
41 | COC(=O)CSc1nc2sc(C)c(C)c2c(=O)n1C | inconclusive [inhibitor, single point]
42 | Cc1cccc(N2C(=O)c3cccc4c(N)ccc(c34)C2=O)c1 | active: 10 µM
43 | Cc1ccc(NC(=O)c2sc3ncnc(N4CCN(c5ccccn5)CC4)c3c2C)c(C)c1 | inconclusive [inhibitor, single point]
44 | N#Cc1c(NC(=O)COC(=O)c2ccc(S(=O)(=O)N3CCCC3)cc2)sc2c1CCCCC2 | inconclusive [inhibitor, single point]
45 | CCCCN(CCCC)C(=O)c1sc2nc(N3CCOCC3)c3c(c2c1N)CCCC3 | inconclusive [inhibitor, full curve]
46 | CC(=O)Nc1ccc(S(=O)(=O)N2CCN=C2SCc2ccc(C)cc2)cc1 | inconclusive [inhibitor, single point]
47 | Cc1cc(C)cc(NC(=S)NCCN(C2CCCCC2)C2CCCC2)c1 | inconclusive [inhibitor, single point]
48 | CCOc1ccc(N(C)S(=O)(=O)c2cc(-c3cc(C)no3)ccc2CC)cc1 | inconclusive [inhibitor, partial curve]
49 | CCOc1ccc(NS(=O)(=O)c2ccc(C(=O)NCC(c3ccc(OC)cc3)N3CCOCC3)cc2)cc1 (centres undefined) | inconclusive [inhibitor, single point]
